# The source gives no read counts; variants with many changes may rest on few reads.
# B1: LINE1-mini (parent)
# chain: GGCAGAGCUCAACACAGCGUGGCAAAGUGGCUGUGGCUAGACUGCC
# Variants of: B1
# Experiment: self-cleavage, relative activity (ratio to wild type); higher = more cleavage; in vitro, sequencing; the parent is a self-cleaving ribozyme
row,Variant,self-cleavage
1,GGCAGAACUCAACAGAGCAUUGCUAAGUCGCUGUGGCUAGACUGCC [G7A C15G G19A G21U A24U G29C],0.09
2,GGCAGAACUCAACACAACGUGGCAAAGCGGCUGUGGCUAGACUGCC [G7A G17A U28C],0.6
3,GGCAGAACUCAAGACAGCGUGGCAAAGUGGCUGUGGCUAGACCGCC [G7A C13G U43C],0.34
4,GGCAGAACUCAACACAGCGUGACAAAGUGGCUGUGGUUAGACUGCC [G7A G22A C37U],0.04
5,GGCAGAACUCAACAGAGCGUGCCAAAGUGGCUGUGGCUAGACUGCC [G7A C15G G22C],0.06
6,GGCAGAACUCAACACAGCCUGGCAAACUGGCUCUGGCUAUACGACC [G7A G19C G27C G33C G40U U43G G44A],0.02
7,GGCAGAACUCAAUACAGCGUGGCAAAGUGGCUGUGGCUCGACUGCA [G7A C13U A39C C46A],0.41
8,GGCAGAACUCAACACAGAGUGACAAAGUGGCUGUGGCUAGACUGCC [G7A C18A G22A],0.07
9,GGCAGAACUCAACACACCGUGGCACAGUGGCUGUGGCUAUACUGCC [G7A G17C A25C G40U],0.03
10,GGCAGAACUCAACACAUCUUGGCAAACUGGCUGUGGCUAGACUGCC [G7A G17U G19U G27C],0.02
11,GGCAGAACUCAACACAGCGUGCUAAAGUGGCUAUGGCAUGAAUGCC [G7A G22C C23U G33A U38A A39U C42A],0.41
12,GGCAGAACUCAACACAGUGUGGUAAAGUGGCUGUGGCUAGACUGCC [G7A C18U C23U],0.19
13,GGCAGAACUCAACACAGCGUGGCAAAGUGGUUGUGGCUAGACUGCU [G7A C31U C46U],0.05
14,GGCAGAACUCAACACAGGGUGGCAAAGUGGGUGUGGCUAGACUGCC [G7A C18G C31G],0.02
15,GGCAGAACUCAACACAGCAUGGAUGAGUGGCUGUGGCUAGACUGCC [G7A G19A C23A A24U A25G],0.22
16,GGCAGAACUCAACACAGCUUGGCAAAGAGGCUGUGGCUAGACUGCC [G7A G19U U28A],0.02
17,GGCAGAACUCAACACAGCGUGGGACAGUGGCUGUGGCUAGACUGCC [G7A C23G A25C],0.02
18,GGCAGAACUCAACACAGCGUGGCAAAGUGGUAGUGCCUUGCCUGCC [G7A C31U U32A G36C A39U A41C],0.02
19,GGCAGAACUCAACACAGGGUUGCAAUGCGGCGGUGGCUAAACUGCC [G7A C18G G21U A26U U28C U32G G40A],0.08

row,Variant,self-cleavage
1,GGCAGAACUCAACACAGCAUGGCAAAGUGGCUGUGGCUAAACUGCC [G7A G19A G40A],0.54
2,GGCAGAACUCAACACAGCCUGGCAAAUUGGCUGUGGCGAGACUGCC [G7A G19C G27U U38G],0.01
3,GGCAGAACUCAACAGAGCGUGGCGAAGUGUCUGUCGCUAGACUGCC [G7A C15G A24G G30U G35C],0.04
4,GGCAGAACUCAACAAAGCGUGGCAAAGUGGCUGUGGCGAGACUGCC [G7A C15A U38G],0.02
5,GGCAGAACUCAACACAGCGUGGCAAAGUGGUUGUGGCUAGACUGUC [G7A C31U C45U],0.07
6,GGCAGAACUCAAUACAGCGUGGCAAAGUGGCUGUGCCUACACUGCC [G7A C13U G36C G40C],0.24
7,GGCAGAACUCAACACAGCGUGGCAAAGUGGUUGUUGCUAGACUGCC [G7A C31U G35U],0.03
8,GGCAGAACUCAACACAGCGUGUAAAAGUGGCUGUCGCCAGACUGCC [G7A G22U C23A G35C U38C],0.17
9,GGCAGAACUCAACACAGCGUGUCAUAGUGGCUGUGGAUAGACUGCC [G7A G22U A25U C37A],0.53
10,GGCAGAACUCAAUACAGCGUGGCAAAGUAGCUGUGGCUAGACUGCC [G7A C13U G29A],0.36
11,GGCAGAACUCAACACAGCGUGGCAAAGUCACUGUGGCUAGGCUGCC [G7A G29C G30A A41G],0.04
12,GGCAGAACUCAACACAGCGUGGAAAAGUGGCCGUGGCUAGACUGCC [G7A C23A U32C],0.52
13,GGCAGAACUCAACACAGCGUGACAAAGUGGCUGGGGCUAGAUUGCC [G7A G22A U34G C42U],0.15
14,GGCAGAACUCAACAUAGCAUGGCAAAUUGGCUGUGGCUAGACUGCC [G7A C15U G19A G27U],0.22
15,GGCAGAACUCAACACAGCGUGGCAAACUGGCUGUGUCUAGACUGCC [G7A G27C G36U],0.07
16,GGCAGAACUCAACAUAUAAUGGCAAAGUGGCUGUGGCUAGACUGCG [G7A C15U G17U C18A G19A C46G],0.07
17,GGCAGAACUCAACACAGCGUGGCAAAGUGGCUGUGGAGAGACUGCC [G7A C37A U38G],0.01
18,GGCAGAACUCAACAUAGCGUGGCAAAGUGGCUGUGGCUAGUUUGUC [G7A C15U A41U C42U C45U],0.89
19,GGCAGAACUCAACACAGCGUGGCAAAUUGGCUGUUGCUAGACUUCC [G7A G27U G35U G44U],0.72

row,Variant,self-cleavage
1,GGCAGAACUCAACACAGCGUGGGAAAGUGGCUUUGGCUAGACUGCC [G7A C23G G33U],0.24
2,GGCAGAACUCAACACAGCGUGGCAAAGUGGGAGUGGCUAGACUGCC [G7A C31G U32A],0.02
3,GGCAGAACUCAACACAGCGUUGCAAAGUGGCUGAGGCUGGACUGCC [G7A G21U U34A A39G],0.02
4,GGCAGAACUCAACACAGUGUGGCAAAGCGACUGUGGCUAGACUGCC [G7A C18U U28C G30A],0.04
5,GGCAGAACUCAACACAGCGUGAGAAAGUGGCUGUGGCUUGAAUGCC [G7A G22A C23G A39U C42A],0.12
6,GGCAGAACUCAACACAGUGUUGCAAAGUCGCUGUGGCUAGACUGCC [G7A C18U G21U G29C],0.34
7,GGCAGAACUCAACACAACGUGGCAAAGUGGCUGUGGCAAGAAUGCC [G7A G17A U38A C42A],0.01
8,GGCAGAACUCAACACAGCCUGGCAGAGUGGCUGUGGCUAGAGUGCC [G7A G19C A25G C42G],0.02
9,GGCAGAACUCAACACAGUGUGGCAAAGUGGCUGUGGCUAGACUCCC [G7A C18U G44C],0.1
10,GGCAGAACUCAACACAUCGUAGCAAAGUGGCUGUGUCUAGACUGCC [G7A G17U G21A G36U],0.3
11,GGCAGAACUCAACAUAGCGUGGCAAAGUGGCUGUAGCUAGACUGCC [G7A C15U G35A],1.38
12,GGCAGAACUCAACACAGGAUGGCAAAGUGGCUGUGGCUAGACUGCC [G7A C18G G19A],0.65
13,GGCAGAACUCAACACAGUGUGUCAAAGUGGCUGUCGCUUGAAUGUC [G7A C18U G22U G35C A39U C42A C45U],0
14,GGCAGAACUCAACACAGCGUGGCAAAGUGGCUGUGGAUUGACUGCC [G7A C37A A39U],0.31
15,GGCAGAACUCAACACAGCGUGACAAAGUGCCUGUCGCUAGACUGCC [G7A G22A G30C G35C],0.11
16,GGCAGAACUCAACACAGGGAGGCAAAGUGGCUGUGGCUAGACUGCC [G7A C18G U20A],0.03
17,GGCAGAACUCAACAUAGCUUGGCAAAGUGGCUGUGGCUAUACUCCC [G7A C15U G19U G40U G44C],0.1
18,GGCAGAACUCAACACAGCAUGGCAAAGUGGCUGUGUCUAGACUGCC [G7A G19A G36U],0.3
